“And” between values parts separate entries of the source, which are not always exact repeats. Equal entries are not always repeated. The whole screen tested about 16,000 compounds, of which about 40 (0.2%) were called active. Inconclusive results (about 1%) are left out. Calls follow the shape of the dose curve; as a rule, active = well fitted activation curve with a large enough effect; inconclusive = small, poorly fitted or top-dose-only effect, or another doubt; inactive = no such curve, though single readings can be large or run the other way. The list shows a part of the results.
What follows are compounds tested against Rap guanine nucleotide exchange factor 4 (Homo sapiens) (UniProt Q8WZA2) (assay: Validation qHTS for agonist of cAMP-regulated guanine nucleotide exchange factor 4 (EPAC2)). Conditions: EPAC2 Rap1B BODIPY-GDP exchange, fluorescence; activation: active compounds read high.
Method in brief: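 Signal normalized against 6.5 mM cAMP as agonist control. Mix of EPAC2 (100 nM), RAP1B-BODIPY-GDP (250 nM) and GDP (50 uM) was read kinetically at 480/540 nm, every 5 min over 30 min, after 5 min room-temperature incubation with compound.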
% is scaled to controls: 0 for no effect and ±100 for the full control effect.
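Also: exchange makes BODIPY-GDP fluorescence drop when released from Rap1B; series mostly up to about 150 µM.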

Sequence of UniProt Q8WZA2 (Q8WZA2 whole entry, looked up): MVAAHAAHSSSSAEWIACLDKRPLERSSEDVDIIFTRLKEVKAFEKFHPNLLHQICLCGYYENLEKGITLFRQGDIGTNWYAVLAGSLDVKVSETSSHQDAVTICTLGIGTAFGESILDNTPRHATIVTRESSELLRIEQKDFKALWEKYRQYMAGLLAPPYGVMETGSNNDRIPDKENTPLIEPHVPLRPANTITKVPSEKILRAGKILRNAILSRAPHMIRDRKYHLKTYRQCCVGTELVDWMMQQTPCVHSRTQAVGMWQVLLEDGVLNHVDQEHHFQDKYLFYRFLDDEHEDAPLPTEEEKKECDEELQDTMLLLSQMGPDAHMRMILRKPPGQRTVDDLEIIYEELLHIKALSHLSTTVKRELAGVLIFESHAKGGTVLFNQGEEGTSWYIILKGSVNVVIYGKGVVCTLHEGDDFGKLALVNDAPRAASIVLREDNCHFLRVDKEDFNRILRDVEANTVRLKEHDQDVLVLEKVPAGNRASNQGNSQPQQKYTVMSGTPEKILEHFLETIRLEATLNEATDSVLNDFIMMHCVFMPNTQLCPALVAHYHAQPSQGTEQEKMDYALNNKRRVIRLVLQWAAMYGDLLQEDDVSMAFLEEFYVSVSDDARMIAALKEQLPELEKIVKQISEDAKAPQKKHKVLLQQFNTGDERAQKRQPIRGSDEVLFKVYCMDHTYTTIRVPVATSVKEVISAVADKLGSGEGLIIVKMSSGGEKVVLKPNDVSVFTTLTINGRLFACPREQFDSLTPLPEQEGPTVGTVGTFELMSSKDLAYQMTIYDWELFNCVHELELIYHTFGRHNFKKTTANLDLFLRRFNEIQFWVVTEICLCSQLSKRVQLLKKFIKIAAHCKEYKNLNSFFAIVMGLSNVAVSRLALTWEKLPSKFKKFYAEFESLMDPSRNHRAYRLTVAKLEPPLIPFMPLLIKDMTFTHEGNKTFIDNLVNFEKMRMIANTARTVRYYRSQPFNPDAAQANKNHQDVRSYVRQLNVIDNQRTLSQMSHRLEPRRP

activation, inactive:
H-LVVYPWTQR-OH 5.88%
CC(C)(C)NCC(O)COc1cccc2c1CCC(=O)N2 (configuration not stated) -27%
N#C/C(=C\c1ccc(-c2cc(Cl)ccc2Cl)o1)C(=O)Nc1cccc2ncccc12 -31.5%
Cc1ccc(C)c(CN2C[C@H](Sc3ccccn3)C[C@H]2C(=O)Nc2ccc3sc(C)nc3c2)c1 -7.66%
CN1CCN(c2ncnc3ccc(-c4ccc5c(c4)OCO5)cc23)CC1 -3.74%
C[C@@H](CSc1ccccc1)CN1CC[C@H](O)CCC1=O -11.4%
Cn1c(=O)c(-c2cccs2)nc2cnc(OCc3ccccc3)nc21 -7.81%
O=S(=O)(c1ccccc1)N1CCC2(CC1)CN(Cc1nccs1)C2 0.857%
CC/C=C\C/C=C\C/C=C\CCCCCCCCCC(=O)O -0.394%
CCCC(=O)O[C@]1(C(=O)COC(=O)CC)CC[C@H]2[C@@H]3CCC4=CC(=O)CC[C@]4(C)[C@H]3[C@@H](O)C[C@@]21C 2.43%
COc1ccc(OC)c(C(O)CNC(=O)CN)c1 (configuration not stated) -5.51% and -0.879%
CC(S)C(=O)NCC(=O)O (configuration not stated) -3.77%
CN(C)CCN1C(=O)c2ccccc2N(C)c2ccccc21 -18.6%
CC(=O)N1CCC2(CC1)CN(Cc1ccc(C#N)cc1)C2 3.2%
CN=C(NC#N)NCCSCc1csc(N=C(N)N)n1 2.39% and -1.99%
Nc1ncc2[nH]cnc2n1 5.11%
COc1cccc(-c2nc3cc(SC)ccc3cc2CN(C(=O)c2csc(C)n2)C2CC2)c1 -16.5%
CC(C)NCC(O)COc1ccccc1-n1cccc1 (configuration not stated) -6.22%
Cn1c(=O)c(-c2cc(F)cc(F)c2)nc2cnc(Oc3ccccc3)nc21 -2.97%
C=CC(=O)Nc1cc2c(Nc3ccc(F)c(Cl)c3)ncnc2cc1OCCCN1CCOCC1 -20.7%
CN(C)c1ncc2nc(-c3ccc(F)cc3)c(=O)n(CCc3ccccc3)c2n1 1.33%
Cc1cccc(N(C)C(=S)Oc2ccc3c(c2)CCC3)c1 13.3%
COc1ccc(NC(=O)N2CC3(CCN(C(=O)c4ccncc4)CC3)C2)cc1 -10.6%
CC(C)[N+]1(C)[C@@H]2CC[C@H]1CC(OC(=O)C(CO)c1ccccc1)C2 (some centres not stated) 2.46% and -1.87%
C[C@](O)(C(=O)Nc1ccc(S(=O)(=O)c2ccccc2)cc1)C(F)(F)F 4.3%
COC(=O)C1CCN(Cc2ccc3c(c2)CN(C(=O)c2cc(-c4ccc(C)o4)[nH]n2)CCO3)CC1 -5.45%
CN(C)Cc1ccccc1-c1nccc(NCc2cccs2)n1 1.02%
COC(=O)N1CCC2(CC1)CN(c1ccc(-c3ccccc3)cc1)C2 5.3%
C=CCN1CCc2nc(N)sc2CC1 -12.1%
CCC1(C2CCN(Cc3cccc4ccccc34)CC2)NC(=O)N(Cc2ccc3c(c2)OCO3)C1=O (configuration not stated) -3.5%
Cc1ccc(C(=O)Nc2cccc(-c3nc(CNC(=O)[C@@H]4C[C@@H](C)NC(=S)N4)c(C)o3)c2)s1 -13.2%
CN(Cc1ccco1)c1nc(-c2ccoc2)nc2ccccc12 -6.08%
O=C(NCC1CCC2(CCN(Cc3cccc4ncccc34)CC2)O1)c1ccccc1 (configuration not stated) -0.825%
CN(C)C(=O)c1ccc(-c2cc(Nc3ccccc3)ncn2)cc1 -18.3%
CC(=O)N/N=C/c1ccc([N+](=O)[O-])o1 -11.9%
Cc1noc(C)c1-c1ccc2ncnc(NCc3ccccc3)c2c1 -29.2%
COc1ccc(-n2c(=O)c(-c3cc(F)cc(F)c3)nc3cncnc32)cc1 -11.6%
OCC[N+]1(CCc2ccccc2)CCOCC1 -14.3%
Cc1cccc(CNc2cc(-c3ccc(N(C)C)cc3)ncn2)c1 -11.8%
CC(=O)C1=C(O)C=C2Oc3c(C(C)=O)c(O)c(C)c(O)c3[C@]2(C)C1=O 8.06%
C[C@H]1O[C@@H](n2cc(F)c(=O)[nH]c2=O)[C@H](O)[C@H]1O -17.6%
Cc1ccc(CN2CCc3nnc(C(NS(C)(=O)=O)C(C)C)n3CC2)cc1C (configuration not stated) -15.7%
COc1ccccc1-c1cncnc1NCc1cnc(C)cn1 -4.96%
CCCCCCCCCCCCCCCCOCC(CO)OC (configuration not stated) -20.3%
CCOC(C)=O -37%
COc1cccc(-c2nc(NCc3ccc(OC)cc3OC)c3ccccc3n2)c1 21.2%
O=C(CCc1ccc(O)cc1)c1c(O)cc(O)cc1O -16.6% and -9.82% and -69.4%
COC(=O)[C@]12CCC(C)(C)C[C@@H]1[C@@H]1C(=O)C=C3[C@@]4(C)C=C(C#N)C(=O)C(C)(C)[C@@H]4CC[C@@]3(C)[C@]1(C)CC2 -54.4%
CN1C(=O)C[C@@H](C(=O)N[C@@H](Cc2cnc[nH]2)C(=O)N2CCC[C@H]2C(N)=O)NC1=O -1.11%
Cc1cnc(CNc2ncnc3ccc(-c4ccoc4)cc23)cn1 -6.69%
O=c1[nH]c2cc([N+](=O)[O-])c([N+](=O)[O-])cc2[nH]c1=O -4.19% and -13.7% and -4.61%
Cc1c[nH]c2ccccc12 -13.5%
N#CCCn1c(=O)c(-c2ccc(Cl)cc2)nc2cnc(N3CCNCC3)nc21 7.04%
CCCOC(=O)C1NC(=O)N2C(C(=O)OCCC)C(C)(C)S[C@H]12 (some centres not stated) -14.2%
CC(=O)/C(C)=N\O 4.61%
O=c1cc(-c2ccc(O)cc2)oc2ccc(O)cc12 -12.4%
O=C(c1ccccc1)C(O)c1ccccc1 (configuration not stated) 8.5%
C=CCNC(N)=S -12.2%
COC(=O)[C@@H]1CCCN1Cc1ccc2c(c1)CN(Cc1ccccc1F)CCO2 -1.07%
CN(C)CCOC(C)(c1ccccc1)c1ccccn1 (configuration not stated) -21.1% and 6.34% and -9.81%
CC(=O)OC1CC2C(C)(C)C(O)CC(O)[C@@]2(C)C2CC[C@@]3(C)C(=CC(=O)OC3c3ccoc3)[C@]12C (some centres not stated) -15.4%
COc1cccc(-c2nc3cc4c(cc3cc2CN(C(=O)c2csc(C)n2)C2CC2)CCC4)c1OC -1.9%
Cn1ccc(O)c(C#N)c1=O 5.96%
Cn1c(=O)c(CCc2ccccc2)nc2cncnc21 -3.67%
CCCCCCCCCCCCCCC[C@H](O)[C@H](N)CO -46.1%
C[N+](C)(C)CCO 6.78% and -21.1% and 1.78%
COC(=O)/C=C/c1cc(O)ccc1O -3.84%
COc1ccc(-c2cc(=O)c3cc(OC)ccc3o2)cc1 -8.25%
COc1ccc(-c2oc3c(CC=C(C)C)c(O[C@H]4OC(CO)C(O)C(O)C4O)cc(O)c3c(=O)c2O[C@@H]2OC(C)C(O)C(O)C2O)cc1 (some centres not stated) -14.7%
N[C@@](C(=O)O)(c1ccc(P(=O)(O)O)cc1)C1CC1 -4.69%
C=CC(C1=CC(=O)C(OC)=CC1=O)c1ccc(OC)cc1 (configuration not stated) -0.548%
O=C(c1c(O)c2ccc(Cl)cc2[nH]c1=O)C1CC1 -27.3% and -6.46%
CC(C)(C#N)c1cc(Cn2cncn2)cc(C(C)(C)C#N)c1 4.51%
CC(C)Cn1cnc2c1c(=O)n(C)c(=O)n2C -4.85%
COc1ccc(-c2nc3cnc(Oc4cccc(Cl)c4)nc3n(C[C@H]3CCCO3)c2=O)cc1 -21.3%
CO[C@H]1C[C@H](O[C@H]2[C@H](C)[C@@H](O[C@@H]3O[C@H](C)C[C@H](N(C)C)[C@H]3O)[C@@H](C)C[C@]3(CO3)C(=O)[C@H](C)[C@@H](O)[C@@H](C)[C@@H](C)OC(=O)[C@@H]2C)O[C@@H](C)[C@@H]1O 1.37%
COc1ccc(-c2nc3cnc(OC)nc3n(Cc3ccc(F)cc3)c2=O)cc1 0.142%
Oc1c(I)cc(Cl)c2cccnc12 -7.91% and 3.48%
O=C(Oc1ccccc1)N1CCC2(CC1)CN(c1ncccn1)C2 -0.759%
C[C@@H](O)[C@H]1C(=O)N2C(C(=O)O)=C(S[C@@H]3CN[C@H](CNS(N)(=O)=O)C3)[C@H](C)[C@H]12 10.3%
COc1ncc2nc(-c3cc(F)cc(F)c3)c(=O)n(CCc3ccccc3)c2n1 -15.6%
COC(=O)CC[C@H](N)C(=O)O -14%
CCCC(=O)Nc1c(I)cc(I)c(CC(CC)C(=O)O)c1I (configuration not stated) -9.2%
CN(C)C(=O)c1ccc(-c2cc(NCc3cccnc3)ncn2)cc1 -13.5%
COc1cc(=O)n2c(c1C(=O)NC(C)c1ccco1)CCN(C(=O)c1cccc(C)c1)CC2 (configuration not stated) 4.08%
CC(C)(CNC(=O)c1cnn(-c2nccc(-c3cccs3)n2)c1C1CC1)N1CCOCC1 -20.7%
C[C@@H]1CCN(C(=O)[C@H](CCCN=C(N)N)NS(=O)(=O)c2cccc3c2NC[C@H](C)C3)[C@@H](C(=O)O)C1 -21.7%

From PubChem BioAssay AID1645887 (National Center for Advancing Translational Sciences (NCATS), 2021)
